This is an account of results in the GPR68 mutational scans of Howard et al. (2025).

B1: GPR68, Q15743 (parent)
chain: MGNITADNSSMSCTIDHTIHQTLAPVVYVTVLVVGFPANCLSLYFGYLQIKARNELGVYLCNLTVADLFYICSLPFWLQYVLQHDNWSHGDLSCQVCGILLYENIYISVGFLCCISVDRYLAVAHPFRFHQFRTLKAAVGVSVVIWAKELLTSIYFLMHEEVIEDENQHRVCFEHYPIQAWQRAINYYRFLVGFLFPICLLLASYQGILRAVRRSHGTQKSRKDQIQRLVLSTVVIFLACFLPYHVLLLVRSVWEASCDFAKGVFNAYHFSLLLTSFNCVADPVLYCFVSETTHRDLARLRGACLAFLTCSRTGRAREAYPLGAPEASGKSGAQGEEPELLTKLHPAFQTPNSPGSGGFPTGRLA

In data set [1] the parent is B1. Kind of data set: cAMP reporter score (Enrich2 score, wild type = 0); higher = more signal; HEK293T, FACS bins.
The variants in data set [2] derive from B1. In words: surface expression score (Enrich2 score, wild type = 0); higher = more signal; HEK293T, FACS bins.

Scores whose standard error is large were omitted. Two further conditions of the source, in which the scores hardly spread, are not listed. Read del as a deletion of the residues named and ins as an insertion between two positions. For some of these results: The data file names ogerin without a concentration.

As to S290N, the cAMP reporter score is -0.36 in data set [1] (pH 5.5); -2.35 in data set [1] (pH 6); -0.406 in data set [1] (pH 6, modulator: ogerin); -1.2 in data set [1] (pH 6.5, modulator: ogerin). In data set [2], the surface expression score is -0.399.

For S290R, the cAMP reporter score in data set [1] (pH 5.5) is -0.731; in data set [1] (pH 6) it was -0.797; in data set [1] (pH 6, modulator: ogerin), -0.709; in data set [1] (pH 6.5, modulator: ogerin) it was -0.545. For the same variant, the surface expression score in data set [2] is -1.33.

As for S290G, the cAMP reporter score is -0.884 in data set [1] (pH 5.5); -0.928 in data set [1] (pH 6); -1.35 in data set [1] (pH 6, modulator: ogerin); -1.38 in data set [1] (pH 6.5, modulator: ogerin). For the same variant, in data set [2], the surface expression score was -0.026.

Take S290Y: the cAMP reporter score in data set [1] (pH 5.5) was -0.607; in data set [1] (pH 6, modulator: ogerin) it was -1.05; in data set [1] (pH 6.5, modulator: ogerin), -1.8. Further, the surface expression score in data set [2] was -0.563.

With S290H, the cAMP reporter score in data set [1] (pH 5.5) turned out to be 2.24; in data set [1] (pH 6), 0.121; in data set [1] (pH 6, modulator: ogerin), 0.295; in data set [1] (pH 6.5, modulator: ogerin), 0.347. Further, in data set [2], the surface expression score is 2.37.

In the case of S290D, the cAMP reporter score was -1.39 in data set [1] (pH 5.5); -0.132 in data set [1] (pH 6); -2.07 in data set [1] (pH 6, modulator: ogerin); -1.21 in data set [1] (pH 6.5, modulator: ogerin). The surface expression score in data set [2] is 0.599.

For S290W, the cAMP reporter score was -1.03 in data set [1] (pH 5.5); -0.272 in data set [1] (pH 6, modulator: ogerin); -0.708 in data set [1] (pH 6.5, modulator: ogerin). The surface expression score in data set [2] is -0.9.

As to S290P, the cAMP reporter score in data set [1] (pH 5.5) was -0.038; in data set [1] (pH 6), -0.024; in data set [1] (pH 6, modulator: ogerin) it was -0.34; in data set [1] (pH 6.5, modulator: ogerin), -0.841. Moreover, the surface expression score in data set [2] was -0.369.

For the variant S290M, the cAMP reporter score was -0.834 in data set [1] (pH 5.5); -2.15 in data set [1] (pH 6, modulator: ogerin); -0.916 in data set [1] (pH 6.5, modulator: ogerin). Further, the surface expression score in data set [2] was -1.83.

S290T: the cAMP reporter score in data set [1] (pH 5.5) was -0.547; in data set [1] (pH 6) it was -0.473; in data set [1] (pH 6, modulator: ogerin), -0.369; in data set [1] (pH 6.5, modulator: ogerin), -0.903. In addition, the surface expression score in data set [2] was 0.343.

Turning to S290L, the cAMP reporter score is -1.41 in data set [1] (pH 5.5); -0.697 in data set [1] (pH 6, modulator: ogerin); -0.335 in data set [1] (pH 6.5, modulator: ogerin). The surface expression score in data set [2] was -0.611.

With S290Q, the cAMP reporter score was -0.881 in data set [1] (pH 5.5); -1.15 in data set [1] (pH 6); -1.49 in data set [1] (pH 6, modulator: ogerin); -0.491 in data set [1] (pH 6.5, modulator: ogerin). The surface expression score in data set [2] is -0.712.

For the variant S290V, the cAMP reporter score is 0.184 in data set [1] (pH 5.5); -1.27 in data set [1] (pH 6); -0.83 in data set [1] (pH 6.5, modulator: ogerin). The surface expression score in data set [2] was -0.692.

S290I: the cAMP reporter score in data set [1] (pH 5.5) was -1.08; in data set [1] (pH 6), -0.809; in data set [1] (pH 6, modulator: ogerin), -0.271; in data set [1] (pH 6.5, modulator: ogerin) it was -0.32. Also, the surface expression score in data set [2] was -0.365.

For E291_T292del, the cAMP reporter score was -1.46 in data set [1] (pH 5.5); -2.04 in data set [1] (pH 6); -2.07 in data set [1] (pH 6, modulator: ogerin); -1.38 in data set [1] (pH 6.5, modulator: ogerin). The surface expression score in data set [2] is -0.997.

In the case of L285_Y286insGSG, the cAMP reporter score in data set [1] (pH 5.5) is -2.25; in data set [1] (pH 6) it was -1.7; in data set [1] (pH 6, modulator: ogerin), -2.12; in data set [1] (pH 6.5, modulator: ogerin), -1.35. In data set [2], the surface expression score is -1.5.

As for F288_S290del, the cAMP reporter score was -1.15 in data set [1] (pH 5.5); -1.22 in data set [1] (pH 6); -1 in data set [1] (pH 6, modulator: ogerin); -0.296 in data set [1] (pH 6.5, modulator: ogerin). In addition, in data set [2], the surface expression score was -2.85.

In the case of C287_F288insGSG, the cAMP reporter score was -1.4 in data set [1] (pH 5.5); -0.525 in data set [1] (pH 6); -1.2 in data set [1] (pH 6, modulator: ogerin); -0.844 in data set [1] (pH 6.5, modulator: ogerin). Further, the surface expression score in data set [2] is -2.42.

As to V284Y, the cAMP reporter score was 1.24 in data set [1] (pH 5.5); 0.001 in data set [1] (pH 6); 1.03 in data set [1] (pH 6, modulator: ogerin); 0.259 in data set [1] (pH 6.5, modulator: ogerin). The surface expression score in data set [2] is -1.4.

On to V284P, for which the cAMP reporter score in data set [1] (pH 5.5) was -0.104; in data set [1] (pH 6), 0.211; in data set [1] (pH 6, modulator: ogerin), -1.12; in data set [1] (pH 6.5, modulator: ogerin), -0.729. Moreover, the surface expression score in data set [2] is -1.81.

Take V284Q: the cAMP reporter score is -1.93 in data set [1] (pH 5.5); -1.51 in data set [1] (pH 6, modulator: ogerin); -2.08 in data set [1] (pH 6.5, modulator: ogerin). Further, in data set [2], the surface expression score was -2.45.

Regarding V284K, the cAMP reporter score in data set [1] (pH 5.5) is -1.66; in data set [1] (pH 6), -1.09; in data set [1] (pH 6, modulator: ogerin), -1.92; in data set [1] (pH 6.5, modulator: ogerin) it was -1.56. For the same variant, in data set [2], the surface expression score is -1.97.

In the case of V284S, the cAMP reporter score in data set [1] (pH 5.5) was -1.1; in data set [1] (pH 6) it was -0.585; in data set [1] (pH 6, modulator: ogerin), -1.13; in data set [1] (pH 6.5, modulator: ogerin) it was -1.14. Also, the surface expression score in data set [2] was -1.58.

V284L: the cAMP reporter score in data set [1] (pH 5.5) was -0.668; in data set [1] (pH 6) it was -0.91; in data set [1] (pH 6, modulator: ogerin), -0.683; in data set [1] (pH 6.5, modulator: ogerin), -1.39. In data set [2], the surface expression score was -0.564.

In the case of V284W, the cAMP reporter score was -0.121 in data set [1] (pH 5.5); 0.235 in data set [1] (pH 6); 0.095 in data set [1] (pH 6, modulator: ogerin); 0.372 in data set [1] (pH 6.5, modulator: ogerin). Moreover, the surface expression score in data set [2] stood at 0.662.

As to V284N, the cAMP reporter score is -1.2 in data set [1] (pH 5.5); -0.868 in data set [1] (pH 6); -1.18 in data set [1] (pH 6, modulator: ogerin); -1 in data set [1] (pH 6.5, modulator: ogerin). In data set [2], the surface expression score is -2.47.

In the case of V284M, the cAMP reporter score in data set [1] (pH 5.5) is -0.085; in data set [1] (pH 6) it was -0.676; in data set [1] (pH 6, modulator: ogerin), -0.116; in data set [1] (pH 6.5, modulator: ogerin), -0.297. Moreover, the surface expression score in data set [2] was -0.268.

As for V284I, the cAMP reporter score in data set [1] (pH 5.5) amounted to 1.23; in data set [1] (pH 6), 1.18; in data set [1] (pH 6, modulator: ogerin), 2.4; in data set [1] (pH 6.5, modulator: ogerin) it was 0.382. In addition, the surface expression score in data set [2] was determined as 1.59.

Turning to V284T, the cAMP reporter score was -0.765 in data set [1] (pH 5.5); -0.544 in data set [1] (pH 6); -0.895 in data set [1] (pH 6, modulator: ogerin); -1.35 in data set [1] (pH 6.5, modulator: ogerin). Moreover, the surface expression score in data set [2] was -1.33.

As to C287_F288insGS, the cAMP reporter score was -1.32 in data set [1] (pH 5.5); -1.24 in data set [1] (pH 6, modulator: ogerin); -1.49 in data set [1] (pH 6.5, modulator: ogerin). For the same variant, the surface expression score in data set [2] is -1.7.

On to Y286_F288del, for which the cAMP reporter score in data set [1] (pH 5.5) was -1.53; in data set [1] (pH 6) it was -0.971; in data set [1] (pH 6, modulator: ogerin), -1.61; in data set [1] (pH 6.5, modulator: ogerin) it was -0.917. For the same variant, in data set [2], the surface expression score was -2.18.
